This is one part of the list. Bounds are passed on as bounds.

To fix the notation:
B1: PhoQ; a variant is named by its letters at X, in order, P23837 (parent)
chain: MKKLLRLFFPLSLRVRFLLATAAVVLVLSLAYGMVALIGYSVSFDKTTFRLLRGESNLFYTLAKWENNKLHVELPENIDKQSPTMTLIYDENGQLLWAQRDVPWLMKMIQPDWLKSNGFHEIEADVNDTSLLLSGDHSIQQQLQEVREDDDDAEMTHSVAVNVYPATSRMPKLTIVVVDTIPVELKSSYMVWSWFIYVLSANLLLVIPLLWVAAWWSLRPIEALAKEVRELEEHNRELLNPATTRELTSLVRNLNRLLKSERERYDKYRTTLTDLTHSLKTPLXXLQXXLRSLRSEKMSVSDAEPVMLEQISRISQQIGYYLHRASMRGGTLLSRELHPVAPLLDNLTSALNKVYQRKGVNISLDISPEISFVGEQNDFVEVMGNVLDNACKYCLEFVEISARQTDEHLYIVVEDDGPGIPLSKREVIFDRGQRVDTLRPGQGVGLAVAREITEQYEGKIVAGESMLGGARMEVIFGRQHSAPKDE

In this test the parent is B1. The experiment in a line: enrichment ratio after two sorts for PhoP signalling (ratio (wild type AVST 3.29)); higher = more functional. As to conditions: with PhoP (E. coli).
As for NPPR, the enrichment ratio is ≤ 0.25.

Turning to QSGT, the enrichment ratio was 7.41.

As to RLNY, the enrichment ratio was ≤ 0.25.

Take WRMH: the enrichment ratio was ≤ 0.25.

As to EYPY, the enrichment ratio was ≤ 0.25.

Regarding SPGV, the enrichment ratio was ≤ 0.25.

Consider EAFK, for which the enrichment ratio is ≤ 0.25.

Take IWCT: the enrichment ratio was ≤ 0.25.

With QRWD, the enrichment ratio was ≤ 0.25.

As for DSTT, the enrichment ratio was ≤ 0.25.

Turning to VICL, the enrichment ratio is ≤ 0.25.

As to ICMS, the enrichment ratio amounted to 2.8.

Turning to SMKH, the enrichment ratio is ≤ 0.25.

For the variant QQQF, the enrichment ratio was ≤ 0.25.

For ASLP, the enrichment ratio is ≤ 0.25.

Take LGLF: the enrichment ratio was ≤ 0.25.

GWNT: the enrichment ratio was ≤ 0.25.

In the case of NFEG, the enrichment ratio is ≤ 0.25.

For the variant IHIL, the enrichment ratio is ≤ 0.25.

DHQI: the enrichment ratio is ≤ 0.25.

For the variant GHPM, the enrichment ratio was ≤ 0.25.

Turning to NKCS, the enrichment ratio is ≤ 0.25.

For HCHG, the enrichment ratio was ≤ 0.25.

WHVI: the enrichment ratio was ≤ 0.25.

Turning to MDEV, the enrichment ratio is ≤ 0.25.

As for IMRC, the enrichment ratio was ≤ 0.25.

Regarding MSGY, the enrichment ratio turned out to be 8.56.

Consider MDIK, for which the enrichment ratio was ≤ 0.25.

In the case of MMIG, the enrichment ratio was ≤ 0.25.

In the case of WGWH, the enrichment ratio was ≤ 0.25.

For the variant HDDV, the enrichment ratio is ≤ 0.25.

For the variant ERWY, the enrichment ratio is ≤ 0.25.

For the variant QLYM, the enrichment ratio was ≤ 0.25.

As for ANTH, the enrichment ratio stood at 6.44.

Consider ETTH, for which the enrichment ratio is ≤ 0.25.

In the case of GWSQ, the enrichment ratio is ≤ 0.25.

As to QGMW, the enrichment ratio was ≤ 0.25.

WKSI: the enrichment ratio was ≤ 0.25.

NCRG: the enrichment ratio was ≤ 0.25.

Take FMWM: the enrichment ratio is ≤ 0.25.

For NCEW, the enrichment ratio was ≤ 0.25.

As for RICF, the enrichment ratio is ≤ 0.25.

Consider WSVQ, for which the enrichment ratio was ≤ 0.25.

On to FGDS, for which the enrichment ratio is ≤ 0.25.

For the variant RNCQ, the enrichment ratio was ≤ 0.25.

Consider GDPS, for which the enrichment ratio is ≤ 0.25.

DGWP: the enrichment ratio was ≤ 0.25.

For the variant GMSV, the enrichment ratio worked out at 6.09.

MKVV: the enrichment ratio was ≤ 0.25.

Consider DACW, for which the enrichment ratio was ≤ 0.25.

On to HRDQ, for which the enrichment ratio was ≤ 0.25.

WTVN: the enrichment ratio was ≤ 0.25.

In the case of TPGC, the enrichment ratio is ≤ 0.25.

Regarding RWLR, the enrichment ratio was ≤ 0.25.

As for EREC, the enrichment ratio was ≤ 0.25.

For the variant IQMN, the enrichment ratio was ≤ 0.25.

Regarding YCRV, the enrichment ratio was ≤ 0.25.

As for YKPL, the enrichment ratio was ≤ 0.25.

With IKVW, the enrichment ratio is ≤ 0.25.

Consider EDIL, for which the enrichment ratio was ≤ 0.25.

As to ICCG, the enrichment ratio is ≤ 0.25.

For QYYP, the enrichment ratio was ≤ 0.25.

Turning to VRIT, the enrichment ratio was ≤ 0.25.

Take GVMH: the enrichment ratio came to 6.59.

Take GFCI: the enrichment ratio is ≤ 0.25.

On to MVDF, for which the enrichment ratio is ≤ 0.25.

As to IWFR, the enrichment ratio was ≤ 0.25.

On to NQAY, for which the enrichment ratio was ≤ 0.25.

With SPPG, the enrichment ratio is ≤ 0.25.

For the variant MHKR, the enrichment ratio was ≤ 0.25.

As to YTHL, the enrichment ratio is ≤ 0.25.

With WLGH, the enrichment ratio is ≤ 0.25.

Take RKRD: the enrichment ratio is ≤ 0.25.

For the variant PIVM, the enrichment ratio was ≤ 0.25.

With TTAE, the enrichment ratio stood at 0.862.

Turning to KLND, the enrichment ratio is ≤ 0.25.

In the case of WFYH, the enrichment ratio is ≤ 0.25.

Turning to GSGV, the enrichment ratio stood at 1.31.

Consider HSPN, for which the enrichment ratio is ≤ 0.25.

For INKL, the enrichment ratio turned out to be 0.269.

As for MLAN, the enrichment ratio was ≤ 0.25.

On to PASF, for which the enrichment ratio is ≤ 0.25.

VNEW: the enrichment ratio is ≤ 0.25.

With HCKS, the enrichment ratio is ≤ 0.25.

For the variant LDVN, the enrichment ratio is ≤ 0.25.

In the case of AHDA, the enrichment ratio is ≤ 0.25.

As to VFFF, the enrichment ratio is ≤ 0.25.

For GEYK, the enrichment ratio is ≤ 0.25.

Turning to PFAR, the enrichment ratio is ≤ 0.25.

Consider NPAN, for which the enrichment ratio is ≤ 0.25.

Take WESH: the enrichment ratio was ≤ 0.25.

RSCP: the enrichment ratio is ≤ 0.25.

For WDHV, the enrichment ratio was ≤ 0.25.

LRCF: the enrichment ratio is ≤ 0.25.

As to GATP, the enrichment ratio is ≤ 0.25.

In the case of TYHK, the enrichment ratio is ≤ 0.25.

On to LCHQ, for which the enrichment ratio was ≤ 0.25.

For the variant PHVT, the enrichment ratio is ≤ 0.25.

Take AWQL: the enrichment ratio was ≤ 0.25.

With FWIV, the enrichment ratio is ≤ 0.25.

Turning to IFHI, the enrichment ratio was ≤ 0.25.

Consider RNGR, for which the enrichment ratio was ≤ 0.25.

Turning to MQLK, the enrichment ratio was ≤ 0.25.

For the variant SNEH, the enrichment ratio was ≤ 0.25.

On to NSKA, for which the enrichment ratio is ≤ 0.25.

IWNS: the enrichment ratio was ≤ 0.25.

For the variant IRWD, the enrichment ratio was ≤ 0.25.

As to ETTV, the enrichment ratio was ≤ 0.25.

Turning to DVPM, the enrichment ratio is ≤ 0.25.

With EFHN, the enrichment ratio is ≤ 0.25.

Turning to TWKS, the enrichment ratio is ≤ 0.25.

On to NCIT, for which the enrichment ratio was ≤ 0.25.

With DFHL, the enrichment ratio is ≤ 0.25.

Take YVQS: the enrichment ratio is ≤ 0.25.

With VYST, the enrichment ratio is ≤ 0.25.

Regarding YLWF, the enrichment ratio is ≤ 0.25.

Regarding YPWF, the enrichment ratio is ≤ 0.25.

Consider KLFV, for which the enrichment ratio is ≤ 0.25.

For the variant RQWS, the enrichment ratio was ≤ 0.25.

Take AMVK: the enrichment ratio is 3.1.

On to KGQI, for which the enrichment ratio is ≤ 0.25.

For FAIR, the enrichment ratio is ≤ 0.25.

PFKD: the enrichment ratio was ≤ 0.25.

For the variant TLIT, the enrichment ratio is ≤ 0.25.

LNNS: the enrichment ratio was ≤ 0.25.

As to PMWP, the enrichment ratio was ≤ 0.25.

On to YPNM, for which the enrichment ratio was ≤ 0.25.

As for GDKR, the enrichment ratio was ≤ 0.25.

Take VAIH: the enrichment ratio is ≤ 0.25.

Take GTHM: the enrichment ratio is ≤ 0.25.

Turning to LTDE, the enrichment ratio was ≤ 0.25.

KTPQ: the enrichment ratio is ≤ 0.25.

Turning to RFMV, the enrichment ratio was ≤ 0.25.

Consider HWWD, for which the enrichment ratio is ≤ 0.25.

For TYFN, the enrichment ratio was ≤ 0.25.

With SLID, the enrichment ratio is ≤ 0.25.

As for MCPL, the enrichment ratio is ≤ 0.25.

Regarding AQVM, the enrichment ratio worked out at 8.43.

For the variant VENC, the enrichment ratio is ≤ 0.25.

As to NSGA, the enrichment ratio is ≤ 0.25.

Turning to IKHP, the enrichment ratio was ≤ 0.25.

Consider RISN, for which the enrichment ratio was ≤ 0.25.

AKSK: the enrichment ratio is ≤ 0.25.

With QITC, the enrichment ratio was ≤ 0.25.

As to LKMH, the enrichment ratio is ≤ 0.25.

With RHEY, the enrichment ratio was ≤ 0.25.

As for FHGM, the enrichment ratio was ≤ 0.25.

With RIYE, the enrichment ratio was ≤ 0.25.

For the variant KTTD, the enrichment ratio is ≤ 0.25.

On to RYAL, for which the enrichment ratio was ≤ 0.25.

Take YAPV: the enrichment ratio was ≤ 0.25.

Turning to WDGE, the enrichment ratio is ≤ 0.25.

As to TWMA, the enrichment ratio is ≤ 0.25.

These data come from a collection of fitness landscapes (doi:10.1126/science.1257360).
